Positions count from the first letter of the chain named. The list shows a part of the results.
T1: RBFOX1 RRM RbFoxmut (Fox-RRM*) (Homo sapiens, UniProt Q9NWB1 109-208, R118D;E147R;N151S;E152T)
T1 sequence: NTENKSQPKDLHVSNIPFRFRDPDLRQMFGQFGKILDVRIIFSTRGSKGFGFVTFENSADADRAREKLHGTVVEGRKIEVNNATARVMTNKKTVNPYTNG

B1: AAGUCUG (DNA:RNA)
RNA: GGGAGACCGGAAUUCAGAUUGUCCAAGUCUGUUAAAUCCCGUCGUAGCCACCA
DNA 1: CAATCTGAATTCCGGTCTCCC
DNA 2: TGGTGGCTACGACGGGATT
B2: CCUCUUG (DNA:RNA)
RNA: B1 RNA with A25C, A26C, G27U, U28C, C29U
DNA 1: CAATCTGAATTCCGGTCTCCC
DNA 2: TGGTGGCTACGACGGGATT
B3: AGAUCGC (DNA:RNA)
RNA: B1 RNA with A26G, G27A, U30G, G31C
DNA 1: CAATCTGAATTCCGGTCTCCC
DNA 2: TGGTGGCTACGACGGGATT
B4: UAUGAGC (DNA:RNA)
RNA: B1 RNA with A25U, G27U, U28G, C29A, U30G, G31C
DNA 1: CAATCTGAATTCCGGTCTCCC
DNA 2: TGGTGGCTACGACGGGATT
B5: AAUACAU (DNA:RNA)
RNA: B1 RNA with G27U, U28A, U30A, G31U
DNA 1: CAATCTGAATTCCGGTCTCCC
DNA 2: TGGTGGCTACGACGGGATT
B6: GUAAGUC (DNA:RNA)
RNA: B1 RNA with A25G, A26U, G27A, U28A, C29G, G31C
DNA 1: CAATCTGAATTCCGGTCTCCC
DNA 2: TGGTGGCTACGACGGGATT
B7: UAAUGAA (DNA:RNA)
RNA: B1 RNA with A25U, G27A, C29G, U30A, G31A
DNA 1: CAATCTGAATTCCGGTCTCCC
DNA 2: TGGTGGCTACGACGGGATT
B8: AUUCCCC (DNA:RNA)
RNA: B1 RNA with A26U, G27U, U28C, U30C, G31C
DNA 1: CAATCTGAATTCCGGTCTCCC
DNA 2: TGGTGGCTACGACGGGATT
B9: CCCGUCG (DNA:RNA)
RNA: B1 RNA with A25C, A26C, G27C, U28G, C29U, U30C
DNA 1: CAATCTGAATTCCGGTCTCCC
DNA 2: TGGTGGCTACGACGGGATT
B10: GAUCAUG (DNA:RNA)
RNA: B1 RNA with A25G, G27U, U28C, C29A
DNA 1: CAATCTGAATTCCGGTCTCCC
DNA 2: TGGTGGCTACGACGGGATT
B11: AUACGCU (DNA:RNA)
RNA: B1 RNA with A26U, G27A, U28C, C29G, U30C, G31U
DNA 1: CAATCTGAATTCCGGTCTCCC
DNA 2: TGGTGGCTACGACGGGATT
B12: CGCUGAG (DNA:RNA)
RNA: B1 RNA with A25C, A26G, G27C, C29G, U30A
DNA 1: CAATCTGAATTCCGGTCTCCC
DNA 2: TGGTGGCTACGACGGGATT
B13: GCGAGGG (DNA:RNA)
RNA: B1 RNA with A25G, A26C, U28A, C29G, U30G
DNA 1: CAATCTGAATTCCGGTCTCCC
DNA 2: TGGTGGCTACGACGGGATT
B14: AGGGAAA (DNA:RNA)
RNA: B1 RNA with A26G, U28G, C29A, U30A, G31A
DNA 1: CAATCTGAATTCCGGTCTCCC
DNA 2: TGGTGGCTACGACGGGATT
B15: UAGAGAG (DNA:RNA)
RNA: B1 RNA with A25U, U28A, C29G, U30A
DNA 1: CAATCTGAATTCCGGTCTCCC
DNA 2: TGGTGGCTACGACGGGATT
B16: AGCCCUA (DNA:RNA)
RNA: B1 RNA with A26G, G27C, U28C, G31A
DNA 1: CAATCTGAATTCCGGTCTCCC
DNA 2: TGGTGGCTACGACGGGATT
B17: UUUGGGC (DNA:RNA)
RNA: GGGAGACCGGAAUUCAGAUUGUCCUUUGGGCUUAAAUCCCGUCGUAGCCACCA
DNA 1: CAATCTGAATTCCGGTCTCCC
DNA 2: TGGTGGCTACGACGGGATT
B18: ACAUCUA (DNA:RNA)
RNA: B1 RNA with A26C, G27A, G31A
DNA 1: CAATCTGAATTCCGGTCTCCC
DNA 2: TGGTGGCTACGACGGGATT
B19: AUCAGCG (DNA:RNA)
RNA: B1 RNA with A26U, G27C, U28A, C29G, U30C
DNA 1: CAATCTGAATTCCGGTCTCCC
DNA 2: TGGTGGCTACGACGGGATT
B20: UAAUGGU (DNA:RNA)
RNA: B17 RNA with U26A, U27A, G28U, C31U
DNA 1: CAATCTGAATTCCGGTCTCCC
DNA 2: TGGTGGCTACGACGGGATT
B21: AACUAAU (DNA:RNA)
RNA: B1 RNA with G27C, C29A, U30A, G31U
DNA 1: CAATCTGAATTCCGGTCTCCC
DNA 2: TGGTGGCTACGACGGGATT
B22: GUAUAAU (DNA:RNA)
RNA: B1 RNA with A25G, A26U, G27A, C29A, U30A, G31U
DNA 1: CAATCTGAATTCCGGTCTCCC
DNA 2: TGGTGGCTACGACGGGATT
B23: CCAUAAA (DNA:RNA)
RNA: B1 RNA with A25C, A26C, G27A, C29A, U30A, G31A
DNA 1: CAATCTGAATTCCGGTCTCCC
DNA 2: TGGTGGCTACGACGGGATT
B24: GCUGUCC (DNA:RNA)
RNA: B17 RNA with U25G, U26C, G29U, G30C
DNA 1: CAATCTGAATTCCGGTCTCCC
DNA 2: TGGTGGCTACGACGGGATT
B25: UACUGCG (DNA:RNA)
RNA: B1 RNA with A25U, G27C, C29G, U30C
DNA 1: CAATCTGAATTCCGGTCTCCC
DNA 2: TGGTGGCTACGACGGGATT
B26: GGGCUAG (DNA:RNA)
RNA: B1 RNA with A25G, A26G, U28C, C29U, U30A
DNA 1: CAATCTGAATTCCGGTCTCCC
DNA 2: TGGTGGCTACGACGGGATT
B27: GCGGCAA (DNA:RNA)
RNA: B1 RNA with A25G, A26C, U28G, U30A, G31A
DNA 1: CAATCTGAATTCCGGTCTCCC
DNA 2: TGGTGGCTACGACGGGATT
B28: CAAAUCG (DNA:RNA)
RNA: B1 RNA with A25C, G27A, U28A, C29U, U30C
DNA 1: CAATCTGAATTCCGGTCTCCC
DNA 2: TGGTGGCTACGACGGGATT
B29: ACAUGGA (DNA:RNA)
RNA: B1 RNA with A26C, G27A, C29G, U30G, G31A
DNA 1: CAATCTGAATTCCGGTCTCCC
DNA 2: TGGTGGCTACGACGGGATT
B30: UGUACGA (DNA:RNA)
RNA: B17 RNA with U26G, G28A, G29C, C31A
DNA 1: CAATCTGAATTCCGGTCTCCC
DNA 2: TGGTGGCTACGACGGGATT
B31: GAGAUUU (DNA:RNA)
RNA: B1 RNA with A25G, U28A, C29U, G31U
DNA 1: CAATCTGAATTCCGGTCTCCC
DNA 2: TGGTGGCTACGACGGGATT

These binders were tested against T1, RBFOX1 RRM RbFoxmut (Fox-RRM*) (assay: EMSA; HiTS-Eq, 1 nM pool, 10 min; buffer printed only for the single-RNA assays: 10 mM Tris pH 7.5, 150 mM NaCl, 3.4 mM EDTA, 0.001% NP-40, 30 C). Details: tags: His6 N-terminal (pET28a); label: 5' 32P.
Method in brief: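 Relative association constants, normalised to the cognate motif, were derived by comparing read counts of each RNA species with those of the control reaction. The RNA sequenced was the free fraction, separated by 8% native PAGE after a 10 min equilibration in 50 µL of 1 nM 5′-radiolabelled RNA (7 randomized nucleotides) with increasing concentrations of purified wild-type or mutant RbFox RRM.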
For B1, the binding signal was 0.0685 KA relative to UGCAUGU.
With B2 the binding signal was 0.102 KA relative to UGCAUGU.
B3 was tested, and the binding signal was 0.079 KA relative to UGCAUGU.
In the case of B4, the binding signal is reported as 0.109 KA relative to UGCAUGU.
For B5, the binding signal was 0.0922 KA relative to UGCAUGU.
With B6 the binding signal was 0.0771 KA relative to UGCAUGU.
B7 was tested, and the binding signal was 0.0815 KA relative to UGCAUGU.
B8 was tested, and the binding signal was 0.0549 KA relative to UGCAUGU.
For B9, the binding signal was 0.101 KA relative to UGCAUGU.
In the case of B10, the binding signal is reported as 0.102 KA relative to UGCAUGU.
For B11, the binding signal was 0.0878 KA relative to UGCAUGU.
B12 was tested, and the binding signal was 0.102 KA relative to UGCAUGU.
In the case of B13, the binding signal is reported as 0.0739 KA relative to UGCAUGU.
B14 was tested, and the binding signal was 0.0963 KA relative to UGCAUGU.
In the case of B15, the binding signal is reported as 0.0939 KA relative to UGCAUGU.
In the case of B16, the binding signal is reported as 0.0818 KA relative to UGCAUGU.
B17 was tested, and the binding signal was 0.0802 KA relative to UGCAUGU.
B18 was tested, and the binding signal was 0.104 KA relative to UGCAUGU.
With B19 the binding signal was 0.133 KA relative to UGCAUGU.
B20 was tested, and the binding signal was 0.111 KA relative to UGCAUGU.
In the case of B21, the binding signal is reported as 0.0802 KA relative to UGCAUGU.
For B22, the binding signal was 0.114 KA relative to UGCAUGU.
In the case of B23, the binding signal is reported as 0.124 KA relative to UGCAUGU.
B24 was tested, and the binding signal was 0.0678 KA relative to UGCAUGU.
With B25 the binding signal was 0.0912 KA relative to UGCAUGU.
For B26, the binding signal was 0.134 KA relative to UGCAUGU.
For B27, the binding signal was 0.0597 KA relative to UGCAUGU.
For B28, the binding signal was 0.077 KA relative to UGCAUGU.
In the case of B29, the binding signal is reported as 0.0672 KA relative to UGCAUGU.
B30 was tested, and the binding signal was 0.157 KA relative to UGCAUGU.
For B31, the binding signal was 0.106 KA relative to UGCAUGU.
